Test results from the RNAGym collection of RNA variant scans (doi:10.7554/elife.90254).
Read counts are not given, so values of variants with three or more changes are uncertain.

B1: LINE1-full (parent)
chain: UACGUAGGUGGUUUUCCCCUGAUAGUGCUAAGGGGGCCUGGAAGUUUGGACUGGGCAGAGCUCAACACAGCGUGGCAAAGUGGCUGUGGCUAGACUGCCUCUCUGGAUUCCUCGUCACUCAGCAGGGCAUCUCUGAGAGAAAUGCC

Variants of: B1
Assay: self-cleavage, relative activity (ratio to wild type); higher = more cleavage; in vitro, sequencing; the parent is a self-cleaving ribozyme

Variant	self-cleavage
U1C G4A U15C A117G G139A	0
A2G U9A U26C U39A	0.67
A2U A57G G125U U132C	0.96
U1C U39A A107G	1.77
A2G U5A A57G A67U	0.64
U1C U39A U100C	0.83
U1G A50U U87A A117U A140G	0.11
A2U U9A U26A A124G	0.39
A2G A24G U29C G89A	0
U1C A107G U119C A136G	0.63
A2G U12G U46C U102C	1.19
A2G U47C U52C A64G U87A C120U	0.4
A2G U14G A22G	1.84
U1C G4A U5G A92U U108C	0.63
A2G A6G A67G	0
U1G C63U A92G A94G	0.43
A2G U39C C51A A140G	1.2
A2G U39A A59U C98A	0.23
U1C A77C U108C A124G	0.44
U1C U12C A64G	0.34
A2G U47A A78G	0.22
U1C G122U U134C	0.91
A2G U13C U119A	1.56
A2G A65G A141G	0

Variant	self-cleavage
A2G U13C U20A	0
A2G U73A C76A U96C C103U U119C	0.09
U1C U26C U87A U108C A138G	0.07
A2U U14C C110U A129G	0.8
A2G A92G A121U U134C	0
U1C G72A A140G	0.67
A2G A22G G25A	0.48
A2G A42U A107G	0.51
U1C U23C U47G U100A A142G	0.53
U1C U39C G40A U62C A64U	0.06
U1C G86A A107U U112C	0.06
U1C U47G U85C	0.1
A2U U112C U132C	0.92
A2G U46C U85A	0.23
A2G U5C U14C	1.38
U1C G4U U47C A65G A136U	0
A2G U23C U47A	1.49
A2G G36A A138U	1.05
U1C U9A A69U U132A	0.03
A2G A43G C56U	0.22
A2G A24G A31G U45G A142G	0
C3A C103A U112C	1.08
A2G A117U A141U	1
C3A G32A A69U A79C	0.09

Variant	self-cleavage
C3A U46C C146U	1.72
A2G U52A A64U A92G A141G	0.45
A2U U14C U62C	0.17
U1C U14C G21U U96C	0.07
A2G U12A C19U G44U	0.21
A2G U14C U20C A124U	0.27
U1C A142G U143C	0.95
U1G U87C G97A	0.07
U1C U23C A59G	0.07
A2G A30G A65U C113U	0.12
A2U U9C U62A	0.15
A2G U13C U87A A138G A141G	0.38
A2U U39A G75A A117U	0.36
A2G A64U U115C A117G G127A	0.85
A2U U13C U20C U115C U134C	0
A2U A59U U73C A121G U143C	0.61
C3G U13C A124U	0
A2G C76U U109C A121U	1.17
A2G A42G A78U U85C U115C	0.24
C3U A22G C71A U85C A138G	0.09
U1G U13C U39C	0.9
A2G U5A A77G U104A A107U A142G	0.67
U1C C38U U119C	0.98
A2U U14C C37U A50G	0.12

Variant	self-cleavage
A2G U13C A30G A92U A140G	1.41
A2G U46C A64G	0.23
A2G U62A U104A U108A	0.11
A2G U45C A64G U130A A136U	0
A2G U13C U109C	0.84
A2U A31U U52A U85A C123U	0.08
C3U A6G G49A A67G	0.47
U1C G34C U108C C111U A121G U134C	1.44
A2U U47A U119A	0.39
A2G U15C U100A U119C U132C	0.61
U1C U12G U29C U47A U115C U134A	1.18
U1C U15C A65G A121U	0
A2G C99U A107G	1.02
U1G U46C G54A	1.2
A2G U13C U130A U132A	0.63
A2G A43U U96C	0.21
A2C U23C U47C U85A U112C	0.78
U1C U13C U26C U47C U52C	1.53
A2C A22U A77G	2.22
A2G U9A A22G U26C G86A	0.69
U1C A77G U102A A141G	1.13
C3A A124G U130C	0.38
U1C A107U U130C	0.82
U1C U62C C84A	0.09

Variant	self-cleavage
U1C C123U U132C	0.72
A2G U47A G74C U115A	0.57
U1C G21U G33U	1.07
U1C U115C A121U	0.84
A2G A31G U102C	0.29
C3A U20A A141G	0.97
U1C U26A G35U U102C	0.41
A2G U14A U15C A69U A142G	0.29
A2U U73C U102C	1.58
A2G A50G A141G	0.56
U1C U85C A141G	0.27
U1C U13C U52C	0.97
U1C U20G C28A C71U A129G	0.47
A2G U73A U100C	1.63
A2G U52A A64G U85C A138G U143C	0
A2G A94G C113U A136G	0.43
A2G A24U A65G U100C U104A C118U	0.18
C3A U46C A117G	0.57
A2G U14C U104C	0
A2G U46C U52A U115A C123U U130C	1.67
A2G U96G A138G	0
U1C A69G A129G	2
U1C U112A G135U C145U	1.29
A2G U14A U20A G54A A65G	0.21

Variant	self-cleavage
A2U G4A U39C	0.59
U1C U13C A22G	0.46
U1C A67G G80A	0.71
A2U A69G G114A	0.41
U1C C95G A140G	0.03
A2U U26A U109A U115A A121G U130C A142G	1.53
U1C A65U U73C U85A	0
U1C U39A A69G	0.4
A2G C51U U52A A67G A92G G97A A129U	0.2
A2G U46A U52G G83A	0.56
A2G U26C A64G U73A G122C	0.32
A2G U14C A59G A140U	0.3
U1C A67C G74A	0.07
A2G A64G U134C	0.88
A2G U45C C128U	2.87
U1C U14C A92U U109C A140U	0.3
U1C U14C U52C U115C	1.72
U1C U13C U96C	0.04
U1C A77U A78G A94G	0
A2G U20C U46A U47C U132C A136G	0
U1C U87C A142G	0.48
A2C U14A U102C A121U	0.66
A2G G125A A138G	0.97
U1C C28U G40U A57G A94G U112C	0

Variant	self-cleavage
A2G A69G U102C	0.42
U1C U14A U100C	0
A2G U9A U15A U62C	0.13
U1C A65G U115C	0
A2G U12C U14G A69G	1.53
A2G U52A A138G	0.78
U1C U39G A50G G80A G125A	1.04
U1C C61A U143C	0.05
C3A U26C G35A A77U A107G	1.08
U1C U12G A42G A141G U143C	2.45
A2G A43C A59G U73C	1.84
A2U A30U A43G	1.9
C3A U20C U23C C37U U85C	0.14
A2G U13C C131A	1.04
A2G U14A G60A C118A	0.12
A2G U14C U52A G58A C76U	0.04
A2G U85C A140G	0
A2G U109A U115C	1.46
U1C U45C U109A	0.81
A2G U62C A69U	0
U1C U62C U87C	0.41
U1G U12C U20A A42G U102C	0
A2G U26C A65G A129C	0
